The campaign covered roughly 45,000 compounds. About 200 (0.44%) were called active. Inconclusive results (about 7%) are left out. Calls come from the whole dose curve; as a rule, active = well fitted activation curve with a large enough effect; inconclusive = small, poorly fitted or top-dose-only effect; inactive = no such curve, though single readings can be large or run the other way. The list shows a part of the results.
Assay: qHTS of TDP-43 Inhibitors: NCGC Sytravon Library Screen; note: 0% is about no effect; nearly all actives have a fitted effect of over 55% in size
Conditions: yeast TDP-43 toxicity rescue, BacTiter-Glo growth, 24 h; series mostly up to 46.1 µM; growth rescue (activation): at the top concentration
In short: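 TDP-43-expressing yeast, pregrown in raffinose, seeded at OD600 0.02 in galactose medium with compound for 24 hr at 30 deg C. Growth read by BacTiter-Glo luminescence, so rescue of toxicity appears as activation.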

| Compound | growth rescue (activation) |
| --- | --- |
| COc1ccc(/C=C/C(=O)OCc2csc(-c3ccccc3)n2)cc1OC | inactive: 15.7% |
| Cc1ccc(S(=O)(=O)N(C)c2cc(S(N)(=O)=O)c(C)cc2C)cc1 | inactive: 5.17% |
| CCc1ccc(NC(=O)CN2C(=O)C(c3ccccc3)=NC23CCCCCC3)cc1 | inactive: 22.3% |
| COc1ccc(-c2noc(CNC(=O)c3ccoc3C)n2)cc1 | inactive: 8.46% |
| CCN(CC(=O)Nc1ccc(NC(C)=O)cc1)C(=O)Cc1ccccc1F | inactive: -13.7% |
| COC(=O)CCCC(=O)NC(C)c1cnn(-c2ccccc2C)c1C (stereo not given) | inactive: -0.763% |
| O=C(CCC(=O)Nc1ccc(F)cc1)N/N=C/c1ccc(O)cc1O | inactive: -3.75% |
| Cn1c(CN2CCCCC2)nc2cc(NS(=O)(=O)c3ccc(F)cc3)ccc21 | inactive: 0.339% |
| Cc1ccc(C(O)c2ncc(-c3cccc(C(F)(F)F)c3)[nH]2)c(C)c1 (stereo not given) | inactive: 12.6% |
| Cc1ccc(NC(=O)C2CCCN(c3nnc(-n4c(C)ccc4C)s3)C2)cc1Cl (stereo not given) | inactive: 4.75% |
| O=C(NCc1ccccc1)C(c1ccncc1)N(C(=O)c1ccccn1)c1ccccc1 (stereo not given) | inactive: 4.19% |
| CC(=O)c1ccc(OCCCC(=O)NC2CCC(C)CC2)cc1 (stereo not given) | inactive: 15% |
| CCn1cc(C(=O)O)c(=O)c2cc(F)c(N3CCN(C(=S)NC(=O)c4c(OC)cccc4OC)CC3)cc21 | inactive: -6.12% |
| Cc1cnc(CNC(=O)c2csc([C@H]3C[C@H](O)[C@@H](CO)O3)n2)cn1 | inactive: 14.4% |
| O=C(CCc1ccccc1)Nc1cc(NC(=O)CCc2ccccc2)cc(C(=O)O)c1 | inactive: 5.23% |
| O=C(c1ccco1)N1CCN(CCCCOc2cccc3ccccc23)CC1 | inactive: 6.78% |
| Cc1nn(-c2ccccc2)c(N2CCCC2)c1/C=N/NC(=S)Nc1ccccc1F | inactive: 3.1% |
| Cn1cc(-c2csc(C(C)(O)c3cccnc3)n2)cn1 (stereo not given) | inactive: 14.1% |
| COc1ccccc1OCC(O)Cn1nc(C)cc1C (stereo not given) | inactive: 1.51% |
| Cc1c(CCC(=O)O)c(=O)oc2cc3occ(C(C)(C)C)c3cc12 | inactive: -12.5% |
| Cc1ccc(C(=O)N/C(=C\c2sccc2C)C(=O)NCc2ccco2)cc1 | inactive: 12% |
| O=C(O)c1ccc(/C=C2\CCCc3c2nc2ccccc2c3C(=O)O)cc1 | inactive: 0.849% |
| CCc1ccc(N(C(=O)c2snc(C(N)=O)c2N)C(C(=O)NCC2CCCO2)c2cccs2)cc1 (stereo not given) | inactive: 10.1% |
| CCN(CC)C(=O)CSc1nc(O)c(Cc2ccccc2)c(=O)n1-c1ccccc1C | inactive: 4.18% |
| COc1ccc(C(CC(=O)O)N2C(=O)CCC2=O)cc1 (stereo not given) | inactive: -2.92% |
| CCc1nc2ccc(C(=O)NCc3ccccc3)cc2nc1CC | inactive: 18.7% |
| CCc1nc2ccc(C(=O)NCCN3CCOCC3)cn2c1N(C=O)Cc1ccc(OC)cc1 | inactive: -10.5% |

| Compound | growth rescue (activation) |
| --- | --- |
| O=C(Cc1csc2ccccc12)NCc1ccccc1F | inactive: 13.6% |
| CS(=O)(=O)c1ccc(C(=O)N2CC(=O)Nc3ccccc32)cc1 | inactive: 0.0667% |
| CCCCn1c(=NC(C)=O)c(C#N)cc2c(=O)n3cccc(C)c3nc21 | inactive: -31.3% |
| Cc1c(OCC(=O)NC(Cc2c[nH]c3ccc(O)cc23)C(=O)O)ccc2c3c(c(=O)oc12)CCC3 (stereo not given) | inactive: 12.5% |
| COCCn1c(NCc2ccco2)nc2c1c(=O)[nH]c(=O)n2C | inactive: -0.989% |
| Cc1ncc(CO)c(/C=N/NC(=O)c2cc(Br)ccc2O)c1O | inactive: 3.39% |
| Cc1nc(SCC(=O)c2cc3ccccc3oc2=O)c(C#N)c(-c2cccs2)c1C(=O)Nc1ccccc1 | inactive: -1.68% |
| CCC(CNC(=O)c1c(C)nn(-c2ccccc2)c1Cl)c1ccccc1 (stereo not given) | inactive: -5.69% |
| Cn1c(C(=O)O)c(CC(=O)Nc2ccc(F)cc2F)c2ccccc21 | inactive: 16.9% |
| Cc1cc(N/N=C\c2ccc(Br)cc2)nc(-n2nc(C)cc2C)n1 | inactive: 4.8% |
| CCCC1NC(=S)NC(C)=C1C(C)=O (stereo not given) | inactive: -9.16% |
| Cc1cc2oc(=O)c(CC(=O)O)c(C)c2c2occ(C(C)(C)C)c12 | inactive: -6.75% |
| C=CCNC(=O)NC(=O)COC(=O)CC(NC(N)=O)c1ccc(Cl)cc1 (stereo not given) | inactive: 6.76% |
| CC(C)(O)C#Cc1ccc(CN2CCN(C3CCCCC3)C(CCO)C2)s1 (stereo not given) | inactive: -2.25% |
| O=C(NN1C(=O)C2C(C1=O)C1C=CC2C12CC2)c1ccccc1Cl (stereo not given) | inactive: -0.211% |
| CC(=O)c1ccc(N(CC(=O)NCCc2ccccc2)C(=O)c2csnn2)cc1 | inactive: 11.2% |
| O=C(/C=C/c1c(Cl)nc2ccccn12)N1CCN(c2ccccc2F)CC1 | inactive: 24.2% |
| O=C(NC1CCCC1)C(=O)N(Cc1cccnc1)C(C(=O)NCc1ccco1)c1ccccc1F (stereo not given) | inactive: -14.2% |
| CC(C1CC1)N(C(=O)NC1CCS(=O)(=O)C1)c1ccccc1 (stereo not given) | inactive: 15.4% |
| N#Cc1ccc(C(=O)OCC(=O)N2CCN(C(=O)c3ccco3)CC2)cc1 | inactive: -1.22% |
| COC(=O)c1c(C)[nH]c(-c2csc(N)n2)c1C | inactive: 10.3% |
| Cc1cc(NC(=O)CSc2nc3ccccc3c(=O)n2-c2ccccc2)no1 | inactive: 20.2% |
| CCOc1ccccc1N1CCN(C(=S)NCc2ccccc2)CC1 | inactive: 23.9% |
| CN(C)CCCNc1ncnc2c1cnn2Cc1ccccc1Cl | inactive: 9.99% |
| O=C(Nc1ccc(CN2CCCCC2)cc1)c1sc2ccccc2c1Cl | inactive: -6.16% |
| COc1cc(NC(=S)N2CCC(C(N)=O)CC2)cc(OC)c1 | inactive: 9.09% |
| O=C(NCCCc1nc2ccccc2n1Cc1ccc(Cl)cc1)c1ccco1 | inactive: 4.2% |

| Compound | growth rescue (activation) |
| --- | --- |
| CCc1cccc(CC)c1NC(=S)Nc1ccccc1 | inactive: 14.9% |
| CCc1cccc(C)c1NC(=O)CSc1nnc(N)s1 | inactive: 9.53% |
| C=CCN=C1S/C(=C\c2ccc(N(C)C)cc2)C(=O)N1CC=C | inactive: 6.48% |
| COCCNc1nc(NCc2ccccc2)nc2ccsc12 | inactive: 14.5% |
| O=C(O)c1cccc(N2C(=O)c3ccc(C(=O)c4cccc([N+](=O)[O-])c4)cc3C2=O)c1 | inactive: 9.27% |
| CO/N=C/c1cccn1-c1nccc(OC)c1C#N | inactive: -16.3% |
| COc1ccc(-c2nc(-c3ccccn3)nc(N3CCN(C)CC3)c2C#N)cc1 | inactive: -4.62% |
| COc1ccc(S(=O)(=O)Cc2ccc(C(=O)NCCc3cc(OC)ccc3OC)o2)cc1 | inactive: 4.87% |
| Cc1cc(NC(=O)CCC(=O)N(Cc2ccco2)C(C(=O)NC2CCCC2)c2ccccc2)no1 (stereo not given) | inactive: 11.8% |
| O=C(CN1C(=O)NC2(CCCC2)C1=O)NCCc1ccc(F)cc1 | inactive: 1.51% |
| CC1(C)CC(=O)C(N=Nc2ccc(Cl)cc2)=C(O)C1 | inactive: -7.77% |
| Cc1ccc(S(=O)(=O)Nc2cc(S(=O)(=O)N3CCCCC3)ccc2N2CCOCC2)cc1 | inactive: -2.96% |
| CCc1ccccc1NC(=O)C1CCCN(c2nnc(-n3c(C)ccc3C)s2)C1 (stereo not given) | inactive: 7.52% |
| COc1ccccc1NC(=O)c1ccc(NS(=O)(=O)c2ccc(F)c(F)c2F)cc1 | inactive: -15% |
| O=S(=O)(c1ccc(Cl)cc1)N1CCN(C(=S)Nc2ccc(F)c(Cl)c2)CC1 | inactive: 10.5% |
| O=C(COC(=O)c1ccc(F)c(S(=O)(=O)N2CCOCC2)c1)NCc1ccc(F)cc1 | inactive: 13.9% |
| CC(C)c1ccc(NC(=S)NN2CCOCC2)cc1 | inactive: 10.9% |
| CCCCN1CC(O)=C(c2nc(-c3ccc(Br)cc3)cs2)C1=N | inactive: 5.17% |
| CC(OC(=O)C1CC1C)C(=O)Nc1ccc(Cl)cn1 (stereo not given) | inactive: 3.21% |
| O=C(CSc1n[nH]c(=O)n1C1CC1)NCc1ccccc1 | inactive: -13.9% |
| CCn1c(SCC(=O)N/N=C/C(C)=C\c2ccco2)nnc1-c1ccccc1 | inactive: -2.22% |
| O=C(COC(=O)/C=C/c1ccco1)NCc1ccccc1Cl | inactive: 11.4% |
| CCN(CC)CCCN(Cc1cc2cc3c(cc2[nH]c1=O)OCCO3)C(=O)Nc1ccccc1 | inactive: -15.3% |
| COc1ccc(Cc2nnc(N/N=C/c3ccc(O)cc3O)[nH]c2=O)cc1OC | inactive: 16.3% |
| CN(Cc1ccccc1)C(=O)CN1C(=O)NC(C)(c2ccc(Cl)cc2)C1=O (stereo not given) | inactive: 5.75% |
| COC(=O)C1=C(C(C)=O)C(c2ccc(C(=O)OC)cc2)n2nnnc2N1 (stereo not given) | inactive: 10.5% |
| CC1(C)Cc2nc3[nH]c(=S)[nH]c(=O)c3cc2CO1 | inactive: 18.9% |

| Compound | growth rescue (activation) |
| --- | --- |
| Cc1cccc2cc(C3CC(c4ccco4)=NN3C(=O)CCC(=O)O)c(Cl)nc12 (stereo not given) | inactive: 6.37% |
| Nc1nc(SCC(=O)Nc2ccc([N+](=O)[O-])cc2Br)n[nH]1 | inactive: 22.2% |
| Cc1c(Br)c([N+](=O)[O-])nn1CC(=O)Nc1ccccn1 | inactive: 6.37% |
| O=C(NCCc1ccccc1)C1CCCN(S(=O)(=O)c2cccc3nsnc23)C1 (stereo not given) | inactive: 18.5% |
| O=C(O)C(Cc1ccccc1)N=C(NS(=O)(=O)c1ccccc1)c1ccccc1 (stereo not given) | inactive: 2.87% |
| COCC1CCN(C(=O)CCc2nnc(C3(c4ccc(Cl)cc4)CCC3)o2)CC1 | inactive: -12.8% |
| O=C1Nc2ccc(Br)cc2/C1=N\N=C\C1=C(N2CCOCC2)C(=C/c2ccccc2)/CC1 | inactive: 1.24% |
| CCOC(=O)C1=C(c2ccccc2)NC(=O)NC1c1ccc(OC)cc1OC (stereo not given) | inactive: 7.12% |
| Fc1cccc(-c2cncc(N3CCN(CCN4CCCC4)CC3)n2)c1 | inactive: 1.84% |
| O=C(O)c1nc(Cl)c(Cl)c(N/N=C/c2ccccc2C(F)(F)F)c1Cl | inactive: -5.78% |
| CCN(c1ccc(Cl)cc1)S(=O)(=O)c1nnc(NC(=O)C(C)C)s1 | inactive: 4.85% |
| COc1cc(NC(=O)CCn2c(=S)oc3ccccc32)cc(OC)c1OC | inactive: 6.52% |
| COc1cccc(NC(=S)N(CCN(C)C)C(C)c2ccco2)c1 (stereo not given) | inactive: -3.03% |
| Cc1ccccc1/C=C/C(=O)N1CCOCC1 | inactive: 10.1% |
| Cc1cc(C)nc(NS(=O)(=O)c2ccc(N3C(=O)C4CCCCC4C3=O)cc2)n1 (stereo not given) | inactive: 0.567% |
| COc1ccccc1C(=O)N1CCCC(C)(C(=O)NS(=O)(=O)C2CC2)C1 (stereo not given) | inactive: -1.93% |
| O=C(COc1cccnc1[N+](=O)[O-])Nc1cccc(Br)c1 | inactive: 18.6% |
| FC(F)Oc1ccc(NC(=S)NC2CCCCCCC2)cc1 | inactive: 26.5% |
| N=c1c(C(=O)NCC2CCCO2)cc2c(=O)n3ccccc3nc2n1Cc1ccccc1Cl (stereo not given) | inactive: -17.7% |
| Cc1ccc(S(=O)(=O)NC(=NC2CCCCC2)c2ccccc2)cc1 | inactive: 5.19% |
| COc1ccc(NC(C)=O)cc1S(=O)(=O)NC(Cc1ccccc1)C(=O)NCc1ccccc1C (stereo not given) | inactive: 15.2% |
| COc1ccc([N+](=O)[O-])cc1NC(=O)CSc1nc(C)cc(C)n1 | inactive: -4.82% |
| CC(C)(C)NC(=O)COC(=O)c1cc(Cl)ccc1[N+](=O)[O-] | inactive: 24.7% |
| CN(C)CCNC(=O)C1CCN(S(=O)(=O)c2ccc3ccccc3c2)CC1 | inactive: -2.54% |

Reference: PubChem BioAssay AID1347073 (National Center for Advancing Translational Sciences (NCATS), 2019)
